Data published in paper PMC4695013.
These are yes or no findings as the source states them, for the method shown. In cells and extracts the contact can be indirect. Some entries that bind do so weakly or less than the wild type. For some assays here: Where a sequence is shown, tags or fusion partners need not be part of it. Each block holds one molecule with its values, some of them ahead of it.

Chains of the proteins cited; added tags and fusions are not shown.
UniProt Q8K4B0: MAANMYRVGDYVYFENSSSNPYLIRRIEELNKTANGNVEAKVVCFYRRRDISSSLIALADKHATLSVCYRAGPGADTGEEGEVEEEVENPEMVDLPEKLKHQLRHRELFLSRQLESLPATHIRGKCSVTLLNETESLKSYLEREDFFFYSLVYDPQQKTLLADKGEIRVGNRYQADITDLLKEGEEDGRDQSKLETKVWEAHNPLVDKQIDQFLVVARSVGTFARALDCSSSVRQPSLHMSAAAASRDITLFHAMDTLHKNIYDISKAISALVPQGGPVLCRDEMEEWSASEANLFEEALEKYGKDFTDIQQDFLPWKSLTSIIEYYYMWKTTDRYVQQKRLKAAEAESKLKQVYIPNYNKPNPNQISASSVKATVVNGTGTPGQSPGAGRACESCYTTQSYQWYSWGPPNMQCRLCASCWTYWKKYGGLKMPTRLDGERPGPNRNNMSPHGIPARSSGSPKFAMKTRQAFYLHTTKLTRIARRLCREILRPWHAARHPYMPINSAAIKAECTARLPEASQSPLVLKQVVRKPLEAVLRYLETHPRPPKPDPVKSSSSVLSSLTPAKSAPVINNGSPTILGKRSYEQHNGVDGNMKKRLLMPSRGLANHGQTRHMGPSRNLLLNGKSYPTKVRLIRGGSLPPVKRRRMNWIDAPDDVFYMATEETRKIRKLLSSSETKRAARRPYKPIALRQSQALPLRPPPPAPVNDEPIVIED
UniProt P11103: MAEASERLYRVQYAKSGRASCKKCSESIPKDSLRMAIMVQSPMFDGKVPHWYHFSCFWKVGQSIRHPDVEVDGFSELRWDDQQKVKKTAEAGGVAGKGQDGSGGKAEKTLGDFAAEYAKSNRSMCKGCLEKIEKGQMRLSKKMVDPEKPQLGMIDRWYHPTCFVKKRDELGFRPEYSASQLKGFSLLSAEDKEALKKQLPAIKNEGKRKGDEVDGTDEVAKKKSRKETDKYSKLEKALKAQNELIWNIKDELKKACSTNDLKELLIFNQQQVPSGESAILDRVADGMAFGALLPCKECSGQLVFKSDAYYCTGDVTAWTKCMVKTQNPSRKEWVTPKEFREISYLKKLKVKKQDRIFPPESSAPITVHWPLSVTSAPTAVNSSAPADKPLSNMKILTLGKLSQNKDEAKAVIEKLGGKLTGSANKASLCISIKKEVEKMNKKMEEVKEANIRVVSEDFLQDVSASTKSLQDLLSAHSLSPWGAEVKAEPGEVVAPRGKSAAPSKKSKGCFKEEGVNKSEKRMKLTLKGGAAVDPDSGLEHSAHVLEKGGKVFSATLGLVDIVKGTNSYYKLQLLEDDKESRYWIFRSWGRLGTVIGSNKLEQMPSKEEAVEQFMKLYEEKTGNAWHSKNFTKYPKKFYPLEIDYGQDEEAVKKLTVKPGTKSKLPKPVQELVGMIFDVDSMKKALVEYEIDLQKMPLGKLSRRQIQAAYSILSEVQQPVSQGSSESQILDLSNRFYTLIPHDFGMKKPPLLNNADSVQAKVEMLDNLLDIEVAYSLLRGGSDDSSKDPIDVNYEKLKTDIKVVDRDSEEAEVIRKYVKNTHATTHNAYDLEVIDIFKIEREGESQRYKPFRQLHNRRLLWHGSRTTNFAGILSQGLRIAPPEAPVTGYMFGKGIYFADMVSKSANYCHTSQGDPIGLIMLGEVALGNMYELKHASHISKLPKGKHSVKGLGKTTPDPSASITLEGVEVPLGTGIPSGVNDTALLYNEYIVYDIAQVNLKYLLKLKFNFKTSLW
UniProt P09874: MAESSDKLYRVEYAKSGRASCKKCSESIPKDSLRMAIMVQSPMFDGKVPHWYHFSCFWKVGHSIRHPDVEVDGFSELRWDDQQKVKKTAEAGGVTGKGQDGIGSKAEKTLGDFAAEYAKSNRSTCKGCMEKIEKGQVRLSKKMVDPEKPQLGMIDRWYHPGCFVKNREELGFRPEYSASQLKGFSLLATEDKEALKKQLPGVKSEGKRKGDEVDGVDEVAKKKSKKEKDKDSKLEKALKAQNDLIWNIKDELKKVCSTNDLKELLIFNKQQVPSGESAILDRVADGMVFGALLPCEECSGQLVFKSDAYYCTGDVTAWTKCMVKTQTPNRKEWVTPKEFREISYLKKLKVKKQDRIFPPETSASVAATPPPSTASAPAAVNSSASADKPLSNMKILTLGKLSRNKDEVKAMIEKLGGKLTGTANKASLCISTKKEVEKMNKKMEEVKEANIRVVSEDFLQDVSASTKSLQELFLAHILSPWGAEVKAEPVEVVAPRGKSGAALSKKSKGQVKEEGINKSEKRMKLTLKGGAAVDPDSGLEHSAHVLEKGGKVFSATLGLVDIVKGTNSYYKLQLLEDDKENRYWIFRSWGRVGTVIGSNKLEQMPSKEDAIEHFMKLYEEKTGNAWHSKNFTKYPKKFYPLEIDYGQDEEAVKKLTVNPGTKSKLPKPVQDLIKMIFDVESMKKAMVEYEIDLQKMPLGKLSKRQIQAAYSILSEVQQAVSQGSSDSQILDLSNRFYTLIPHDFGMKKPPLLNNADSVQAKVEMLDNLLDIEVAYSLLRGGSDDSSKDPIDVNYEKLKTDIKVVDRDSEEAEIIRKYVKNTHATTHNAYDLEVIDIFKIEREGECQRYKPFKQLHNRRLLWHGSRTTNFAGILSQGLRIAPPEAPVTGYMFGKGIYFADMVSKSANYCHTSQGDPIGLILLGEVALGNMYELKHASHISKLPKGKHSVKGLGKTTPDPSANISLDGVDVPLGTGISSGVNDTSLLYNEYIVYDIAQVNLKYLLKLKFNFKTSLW
UniProt Q92769: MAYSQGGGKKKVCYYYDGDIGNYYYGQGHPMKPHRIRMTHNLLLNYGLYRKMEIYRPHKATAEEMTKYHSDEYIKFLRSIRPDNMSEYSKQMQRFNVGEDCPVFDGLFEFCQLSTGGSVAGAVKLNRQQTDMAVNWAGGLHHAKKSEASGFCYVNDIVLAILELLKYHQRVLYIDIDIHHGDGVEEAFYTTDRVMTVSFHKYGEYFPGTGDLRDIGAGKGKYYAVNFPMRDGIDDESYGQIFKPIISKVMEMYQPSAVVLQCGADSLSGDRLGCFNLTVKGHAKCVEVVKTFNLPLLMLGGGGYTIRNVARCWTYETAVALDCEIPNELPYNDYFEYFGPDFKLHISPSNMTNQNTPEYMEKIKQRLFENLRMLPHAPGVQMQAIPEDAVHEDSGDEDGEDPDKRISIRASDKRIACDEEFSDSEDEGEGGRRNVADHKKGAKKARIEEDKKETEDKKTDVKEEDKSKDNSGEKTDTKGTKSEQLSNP
UniProt Q9CWL2: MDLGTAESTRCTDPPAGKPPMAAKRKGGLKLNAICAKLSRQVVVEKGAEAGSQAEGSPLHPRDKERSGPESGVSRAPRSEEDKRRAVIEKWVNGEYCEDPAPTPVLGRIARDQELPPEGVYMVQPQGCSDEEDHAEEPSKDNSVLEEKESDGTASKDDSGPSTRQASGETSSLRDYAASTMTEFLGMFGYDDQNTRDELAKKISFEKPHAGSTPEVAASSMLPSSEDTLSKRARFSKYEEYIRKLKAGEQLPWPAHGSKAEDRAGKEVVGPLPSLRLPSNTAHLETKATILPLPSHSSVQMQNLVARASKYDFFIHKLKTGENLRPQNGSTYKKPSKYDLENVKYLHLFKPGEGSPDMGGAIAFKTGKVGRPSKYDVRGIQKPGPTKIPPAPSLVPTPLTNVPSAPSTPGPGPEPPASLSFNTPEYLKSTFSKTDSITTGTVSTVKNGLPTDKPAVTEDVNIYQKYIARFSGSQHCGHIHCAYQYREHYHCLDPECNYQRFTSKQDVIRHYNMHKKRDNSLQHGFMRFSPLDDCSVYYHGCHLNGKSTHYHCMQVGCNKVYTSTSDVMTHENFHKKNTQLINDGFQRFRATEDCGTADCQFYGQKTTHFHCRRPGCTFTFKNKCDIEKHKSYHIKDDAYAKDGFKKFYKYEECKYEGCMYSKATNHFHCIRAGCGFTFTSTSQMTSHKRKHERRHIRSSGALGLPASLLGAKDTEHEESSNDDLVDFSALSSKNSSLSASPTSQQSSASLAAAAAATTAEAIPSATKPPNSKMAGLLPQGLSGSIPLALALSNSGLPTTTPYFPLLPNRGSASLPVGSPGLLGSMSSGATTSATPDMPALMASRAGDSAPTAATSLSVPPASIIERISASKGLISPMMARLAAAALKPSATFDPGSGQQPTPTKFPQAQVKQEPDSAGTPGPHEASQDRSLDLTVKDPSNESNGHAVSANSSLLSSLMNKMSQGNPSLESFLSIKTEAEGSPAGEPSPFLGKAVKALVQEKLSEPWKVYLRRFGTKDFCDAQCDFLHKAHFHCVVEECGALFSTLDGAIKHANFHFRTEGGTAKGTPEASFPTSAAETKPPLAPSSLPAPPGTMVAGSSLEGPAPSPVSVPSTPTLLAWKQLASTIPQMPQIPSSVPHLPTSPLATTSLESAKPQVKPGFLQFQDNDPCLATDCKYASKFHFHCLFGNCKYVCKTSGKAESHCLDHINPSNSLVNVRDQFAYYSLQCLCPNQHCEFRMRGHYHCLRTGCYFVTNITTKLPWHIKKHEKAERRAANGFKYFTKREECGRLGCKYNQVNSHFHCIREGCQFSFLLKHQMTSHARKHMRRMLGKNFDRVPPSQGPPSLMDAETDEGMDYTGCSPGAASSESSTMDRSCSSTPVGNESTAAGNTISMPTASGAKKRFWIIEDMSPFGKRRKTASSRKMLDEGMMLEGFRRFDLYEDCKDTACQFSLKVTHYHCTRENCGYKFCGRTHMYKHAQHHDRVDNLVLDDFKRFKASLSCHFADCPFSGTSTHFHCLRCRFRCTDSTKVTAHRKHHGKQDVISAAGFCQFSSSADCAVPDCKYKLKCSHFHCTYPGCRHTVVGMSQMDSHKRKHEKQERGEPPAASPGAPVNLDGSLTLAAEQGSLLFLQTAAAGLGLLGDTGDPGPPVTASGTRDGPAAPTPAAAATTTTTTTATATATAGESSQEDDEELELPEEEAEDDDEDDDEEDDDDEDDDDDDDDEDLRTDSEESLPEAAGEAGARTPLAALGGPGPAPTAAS
UniProt Q8WXI9: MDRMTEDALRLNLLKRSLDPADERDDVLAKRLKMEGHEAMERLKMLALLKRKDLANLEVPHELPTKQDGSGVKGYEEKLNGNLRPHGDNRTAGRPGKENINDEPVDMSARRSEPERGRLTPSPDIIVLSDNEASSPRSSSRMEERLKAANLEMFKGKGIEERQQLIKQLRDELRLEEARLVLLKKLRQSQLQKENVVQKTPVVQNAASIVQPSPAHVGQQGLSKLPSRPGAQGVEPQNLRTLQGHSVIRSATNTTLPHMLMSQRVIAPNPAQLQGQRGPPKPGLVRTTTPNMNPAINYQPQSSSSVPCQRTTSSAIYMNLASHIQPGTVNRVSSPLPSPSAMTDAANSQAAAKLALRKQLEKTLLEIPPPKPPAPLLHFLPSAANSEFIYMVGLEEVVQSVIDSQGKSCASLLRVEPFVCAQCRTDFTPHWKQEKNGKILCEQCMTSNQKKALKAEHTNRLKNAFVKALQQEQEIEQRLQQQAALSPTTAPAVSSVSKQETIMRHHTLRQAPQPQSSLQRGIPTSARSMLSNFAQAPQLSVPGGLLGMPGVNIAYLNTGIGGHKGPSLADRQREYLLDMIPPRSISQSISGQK
UniProt P04406: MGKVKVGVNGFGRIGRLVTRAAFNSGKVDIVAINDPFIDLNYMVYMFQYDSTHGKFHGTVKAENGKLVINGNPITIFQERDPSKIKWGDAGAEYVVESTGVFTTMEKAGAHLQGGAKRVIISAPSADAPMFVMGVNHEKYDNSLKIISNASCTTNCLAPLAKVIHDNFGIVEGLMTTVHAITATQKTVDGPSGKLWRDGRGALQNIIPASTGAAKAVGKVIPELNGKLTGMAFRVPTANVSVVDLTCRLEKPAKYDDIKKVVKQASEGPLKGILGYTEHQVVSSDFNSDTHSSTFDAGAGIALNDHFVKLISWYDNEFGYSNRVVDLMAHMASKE
UniProt Q13547: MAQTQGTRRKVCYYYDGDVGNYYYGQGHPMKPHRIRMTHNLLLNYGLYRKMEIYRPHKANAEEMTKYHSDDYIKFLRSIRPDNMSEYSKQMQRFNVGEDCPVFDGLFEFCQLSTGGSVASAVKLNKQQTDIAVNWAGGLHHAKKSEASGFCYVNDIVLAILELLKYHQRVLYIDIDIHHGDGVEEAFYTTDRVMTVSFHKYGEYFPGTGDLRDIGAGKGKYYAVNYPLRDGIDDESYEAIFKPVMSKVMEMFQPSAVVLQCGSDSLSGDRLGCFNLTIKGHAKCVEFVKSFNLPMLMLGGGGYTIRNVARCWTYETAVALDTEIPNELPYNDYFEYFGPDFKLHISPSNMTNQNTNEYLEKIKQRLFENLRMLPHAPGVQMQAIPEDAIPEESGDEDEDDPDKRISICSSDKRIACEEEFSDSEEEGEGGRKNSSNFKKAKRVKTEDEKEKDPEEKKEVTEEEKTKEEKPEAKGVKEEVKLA

Assays:
[1] = target: T1, 1xFLAG-CASZ1b (human) (UniProt Q86V15); test: co-IP; HEK293T transiently transfected with 1xFLAG-CASZ1b, its mutants or empty vector; whole cell extract (200 mM NaCl, 1% Triton X-100, benzonase), ANTI-FLAG M2 magnetic beads 4 hr at 4°C, western blot; in Figure 6B with or without PARP inhibitor AZD2281 (50 μM, 24 hr)
T1 sequence: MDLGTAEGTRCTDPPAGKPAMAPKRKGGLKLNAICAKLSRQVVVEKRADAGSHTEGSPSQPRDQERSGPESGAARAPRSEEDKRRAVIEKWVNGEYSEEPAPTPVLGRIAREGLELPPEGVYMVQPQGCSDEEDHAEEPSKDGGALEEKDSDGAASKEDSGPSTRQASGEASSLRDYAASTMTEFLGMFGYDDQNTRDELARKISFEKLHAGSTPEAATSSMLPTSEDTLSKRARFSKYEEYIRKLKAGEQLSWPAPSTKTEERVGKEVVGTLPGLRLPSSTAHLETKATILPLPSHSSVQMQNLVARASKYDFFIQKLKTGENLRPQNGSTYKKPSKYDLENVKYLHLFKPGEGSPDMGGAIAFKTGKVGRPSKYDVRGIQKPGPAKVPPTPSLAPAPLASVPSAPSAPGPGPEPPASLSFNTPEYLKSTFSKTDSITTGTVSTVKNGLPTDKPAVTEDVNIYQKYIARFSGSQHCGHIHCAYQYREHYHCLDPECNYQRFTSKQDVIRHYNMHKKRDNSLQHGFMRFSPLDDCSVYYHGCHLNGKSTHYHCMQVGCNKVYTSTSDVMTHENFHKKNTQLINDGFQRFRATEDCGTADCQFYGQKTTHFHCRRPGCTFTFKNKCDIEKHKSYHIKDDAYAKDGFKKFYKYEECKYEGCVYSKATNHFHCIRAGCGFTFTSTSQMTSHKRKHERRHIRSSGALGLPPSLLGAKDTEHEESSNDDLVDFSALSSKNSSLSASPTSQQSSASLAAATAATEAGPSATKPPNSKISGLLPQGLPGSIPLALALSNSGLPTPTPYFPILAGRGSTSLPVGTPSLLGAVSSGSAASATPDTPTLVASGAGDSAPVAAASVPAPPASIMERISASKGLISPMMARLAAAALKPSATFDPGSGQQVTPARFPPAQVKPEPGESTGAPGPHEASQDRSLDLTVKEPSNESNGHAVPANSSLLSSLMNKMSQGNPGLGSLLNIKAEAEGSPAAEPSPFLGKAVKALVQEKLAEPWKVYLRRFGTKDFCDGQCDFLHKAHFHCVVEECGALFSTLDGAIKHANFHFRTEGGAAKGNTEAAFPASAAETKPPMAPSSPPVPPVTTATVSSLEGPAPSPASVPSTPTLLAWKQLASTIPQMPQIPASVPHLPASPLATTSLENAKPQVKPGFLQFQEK

[2] = target: MTA1 (mouse ES cells) (mouse (endogenous in mES cells)) (UniProt Q8K4B0); test: co-IP; endogenous proteins, mouse ES cell extract; anti-MTA1 or anti-PARP1 antibody on Dynabeads, blot probed with anti-CASZ1
[3] = target: PARP1 (mouse ES cells) (mouse (endogenous in mES cells)) (UniProt P11103); test: as above
[4] = target: FLAG-CASZ1a (SY5Y-FLAG-CASZ1a) (human) (UniProt Q86V15); test: co-IP; SY5Y cells stably transfected with tetracycline inducible FLAG-CASZ1b or FLAG-CASZ1a, with or without 1 μg/μl tetracycline for 24 hr; anti-FLAG co-IP, western blot
[5] = target: MTA1 (HEK293T) (human (endogenous in HEK293T)) (UniProt Q13330); test: co-IP; endogenous proteins, HEK293T whole cell extract; anti-MTA1 or anti-PARP1 antibody on Dynabeads, blot probed with anti-CASZ1
[6] = target: PARP1 (HEK293T) (human (endogenous in HEK293T)) (UniProt P09874); test: as above
[7] = target: T2, FLAG-CASZ1b N-terminus deletion mutant without AA 1-185 (human) (UniProt Q86V15); test: co-IP; HEK293T transiently transfected with 1xFLAG-CASZ1b, its mutants or empty vector; whole cell extract (200 mM NaCl, 1% Triton X-100, benzonase), ANTI-FLAG M2 magnetic beads 4 hr at 4°C, western blot; in Figure 6B with or without PARP inhibitor AZD2281 (50 μM, 24 hr)
T2 sequence: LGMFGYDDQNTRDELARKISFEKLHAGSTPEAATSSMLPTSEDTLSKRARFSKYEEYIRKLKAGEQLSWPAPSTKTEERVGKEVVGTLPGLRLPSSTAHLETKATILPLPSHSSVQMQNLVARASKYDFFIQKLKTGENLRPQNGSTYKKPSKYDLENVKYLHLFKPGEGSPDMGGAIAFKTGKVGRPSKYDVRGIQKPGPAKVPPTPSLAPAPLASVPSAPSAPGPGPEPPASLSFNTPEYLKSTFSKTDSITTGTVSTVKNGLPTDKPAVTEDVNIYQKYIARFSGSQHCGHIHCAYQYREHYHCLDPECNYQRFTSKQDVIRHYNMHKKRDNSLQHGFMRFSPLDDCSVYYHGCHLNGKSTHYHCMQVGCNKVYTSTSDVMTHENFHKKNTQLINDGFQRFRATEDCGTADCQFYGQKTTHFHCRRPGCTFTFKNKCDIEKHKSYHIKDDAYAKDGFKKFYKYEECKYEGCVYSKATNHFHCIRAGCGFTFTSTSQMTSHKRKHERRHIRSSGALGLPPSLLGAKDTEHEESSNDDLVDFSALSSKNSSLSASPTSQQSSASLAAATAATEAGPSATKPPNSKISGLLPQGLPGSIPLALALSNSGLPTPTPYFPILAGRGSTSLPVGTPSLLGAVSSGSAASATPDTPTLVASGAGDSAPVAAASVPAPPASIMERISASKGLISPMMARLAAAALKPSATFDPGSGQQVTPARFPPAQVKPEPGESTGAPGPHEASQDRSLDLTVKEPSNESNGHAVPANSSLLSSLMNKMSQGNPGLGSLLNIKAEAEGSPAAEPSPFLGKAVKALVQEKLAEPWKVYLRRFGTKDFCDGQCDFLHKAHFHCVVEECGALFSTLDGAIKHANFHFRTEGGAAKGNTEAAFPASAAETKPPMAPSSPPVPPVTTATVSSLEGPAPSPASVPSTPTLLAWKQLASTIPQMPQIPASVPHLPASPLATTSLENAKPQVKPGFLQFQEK

[8] = target: T3, FLAG-CASZ1b with deletion of AA101-185 (human) (UniProt Q86V15); test: as above
T3 sequence: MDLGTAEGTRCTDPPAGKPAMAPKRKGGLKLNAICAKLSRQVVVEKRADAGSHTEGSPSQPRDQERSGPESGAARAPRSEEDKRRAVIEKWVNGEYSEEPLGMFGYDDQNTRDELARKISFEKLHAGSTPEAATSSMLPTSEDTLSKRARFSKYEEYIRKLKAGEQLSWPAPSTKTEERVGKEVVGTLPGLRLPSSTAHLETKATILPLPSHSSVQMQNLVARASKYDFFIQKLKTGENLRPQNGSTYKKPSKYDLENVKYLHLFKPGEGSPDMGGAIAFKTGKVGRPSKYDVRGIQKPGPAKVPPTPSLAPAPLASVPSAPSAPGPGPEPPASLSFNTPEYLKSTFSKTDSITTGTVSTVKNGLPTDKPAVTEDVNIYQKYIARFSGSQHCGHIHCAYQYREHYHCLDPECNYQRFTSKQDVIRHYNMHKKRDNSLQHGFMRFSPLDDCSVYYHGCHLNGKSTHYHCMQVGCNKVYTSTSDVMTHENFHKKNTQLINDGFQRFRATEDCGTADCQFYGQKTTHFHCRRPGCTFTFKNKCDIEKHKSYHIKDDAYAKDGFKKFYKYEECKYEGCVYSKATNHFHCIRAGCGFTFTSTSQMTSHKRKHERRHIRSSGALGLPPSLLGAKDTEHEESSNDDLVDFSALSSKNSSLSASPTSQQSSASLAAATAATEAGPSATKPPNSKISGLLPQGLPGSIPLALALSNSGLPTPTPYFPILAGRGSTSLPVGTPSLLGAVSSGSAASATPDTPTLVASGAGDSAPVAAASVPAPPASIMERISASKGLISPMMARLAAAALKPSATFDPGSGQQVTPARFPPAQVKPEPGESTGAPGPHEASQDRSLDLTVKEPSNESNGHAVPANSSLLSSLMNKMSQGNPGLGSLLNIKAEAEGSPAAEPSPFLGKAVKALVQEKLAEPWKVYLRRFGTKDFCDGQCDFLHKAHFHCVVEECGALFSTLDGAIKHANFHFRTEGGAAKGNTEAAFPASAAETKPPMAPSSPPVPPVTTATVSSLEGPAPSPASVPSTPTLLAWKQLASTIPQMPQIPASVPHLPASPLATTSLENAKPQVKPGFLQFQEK

[9] = target: PARP1 (HEK293T) (human (endogenous in HEK293T)) (UniProt P09874); test: co-IP; HEK293T transfected with FLAG-CASZ1b or empty vector, with or without PARP inhibitor AZD2281 (50 μM, 24 hr); co-IP with anti-PARP1 antibody, blot probed for CASZ1b

binding [1]: binds
Molecule: HDAC2 (HEK293T) (from UniProt Q92769 1-488)

binding [2]: binds
binding [3]: binds
Molecule: endogenous CASZ1 (mouse ES cells) (from UniProt Q9CWL2 1-1761)

binding [1]: binds
Molecule: PARP1 (HEK293T) (from UniProt P09874 1-1014)

binding [1]: binds
Molecule: XRCC6 (HEK293T) (from UniProt P12956 1-609)

binding [1]: binds
Molecule: XRCC5 (HEK293T) (from UniProt P13010 1-732)

binding [1]: binds
Molecule: RPA1 (HEK293T) (from UniProt P27694 1-616)

binding [4]: binds
Molecule: CHD5 (SY5Y) (from UniProt Q8TDI0 1-1954)

binding [5]: binds
binding [6]: binds
Molecule: endogenous CASZ1 (HEK293T) (from UniProt Q86V15 1-1759)

binding [4]: binds
Molecule: XRCC5 (SY5Y) (from UniProt P13010 1-732)

binding [1]: binds
Molecule: Gatad2b (HEK293T) (from UniProt Q8WXI9 1-593)

binding [7]: no binding
binding [8]: no binding
binding [1]: no binding
Molecule: GAPDH (HEK293T) (from UniProt P04406 1-335)

binding [1]: binds
Molecule: HDAC1 (HEK293T) (from UniProt Q13547 1-482)

binding [9]: binds
B1: 1xFLAG-CASZ1b (protein, UniProt Q86V15-2 1-1166)
chain: T1 sequence
